Reference: the supplement of paper PMC3724861
Some of the results follow.

System: T1, Caupolican (Caup) homeodomain DNA-binding domain
T1 sequence: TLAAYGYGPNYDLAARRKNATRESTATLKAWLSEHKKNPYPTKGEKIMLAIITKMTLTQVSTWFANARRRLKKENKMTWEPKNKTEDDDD
Assay: PBM E-score (8-mer, recovered from the published 9-mer minima) (E-score (dimensionless, -0.5 to 0.5)); Drosophila protein; higher = stronger relative binding preference, active = 0.31 or more
Protocol: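 Protein binding microarray (PBM): in vitro transcribed/translated Caupolican (Caup) homeodomain DNA-binding domain (residues 214-303) applied at 100 nM to a universal 8-mer PBM array (Agilent AMADID 015681). The 8-mer enrichment score (E-score, range -0.5 to 0.5) was computed, and each 9-mer score is the minimum E-score of its two constituent 8-mers. The E-score is the same for a 9-mer and its reverse complement; 0.31 is the stated binding threshold.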

| Sequence | PBM E-score |
| --- | --- |
| AAATTAGG | inactive: 0.0324 |
| ATCCCTGC | inactive: -0.137 |
| AATAATTC | inactive: 0.204 |
| AGGATTTG | inactive: 0.126 |
| TGACGTAA | inactive: 0.0998 |
| CGCCTTGC | inactive: -0.0806 |
| CGCTGTAG | inactive: 0.0698 |
| AACTCAGG | inactive: -0.129 |
| ATAGCAGG | ≥ 0.0448 |
| CGTCTTAG | inactive: -0.133 |
| GGGCCGTA | inactive: -0.122 |
| AGGAGATA | inactive: 0.00547 |
| GACCAGAC | inactive: -0.029 |
| CGGTCCCC | inactive: -0.298 |
| ACGCGGAG | inactive: -0.171 |
| ATTCGTCG | inactive: 0.0411 |
| ATTACAAT | inactive: 0.298 |
| CGCATGAG | inactive: -0.204 |
| AACGTATA | inactive: 0.0814 |
| AAACTACG | inactive: 0.0609 |
| AACTAAAA | inactive: 0.0647 |
| CACTCCCA | inactive: 0.0198 |
| CATAGATC | inactive: 0.116 |
| CGGAAAAC | inactive: 0.0304 |
| GCTGATAA | inactive: 0.0283 |

| Sequence | PBM E-score |
| --- | --- |
| GGACTACA | inactive: 0.161 |
| CCCCTCGC | inactive: -0.261 |
| AATGCAGA | inactive: 0.0234 |
| CGTTCGAA | inactive: 0.0359 |
| CACGATGC | inactive: -0.0178 |
| AGTTTAGG | inactive: -0.00797 |
| AACCATCT | inactive: -0.00295 |
| TAAAGCGA | inactive: -0.0517 |
| ATGGGTAC | inactive: 0.138 |
| ACAAAAGA | inactive: 0.131 |
| CTTCGTCC | inactive: -0.193 |
| GAGCGGTA | inactive: -0.0235 |
| CGTCCGTC | inactive: -0.158 |
| AGTCCGCA | inactive: -0.112 |
| AACGTCCG | inactive: -0.0455 |
| GATCACTA | inactive: 0.00016 |
| CGATAATA | inactive: 0.137 |
| TAAATTTA | inactive: 0.0912 |
| TCTTGTCA | active: 0.329 |
| GTGATGCA | inactive: 0.155 |
| GCTACCTA | inactive: 0.0125 |
| ACTACGAA | inactive: 0.108 |
| GTTCCCTA | inactive: 0.057 |
| CCTTCGCA | inactive: -0.12 |
| TACGCGTA | inactive: 0.0722 |

| Sequence | PBM E-score |
| --- | --- |
| GTGGAGAA | inactive: -0.136 |
| CCTGGAAA | inactive: -0.106 |
| CGGGTTGA | inactive: -0.142 |
| AAACGGCC | inactive: -0.153 |
| CACCAGCA | inactive: -0.0599 |
| CTCAGCAC | inactive: 0.0305 |
| GATCACCA | inactive: 0.00065 |
| ACGCAACA | inactive: 0.215 |
| ATCAAGGC | inactive: -0.0234 |
| CCGGGGTC | inactive: -0.192 |
| ACATCCGT | inactive: 0.187 |
| ATGGCTGG | inactive: -0.0905 |
| CCGTAGGA | inactive: -0.155 |
| CAGCGCTG | inactive: 0.0134 |
| AAACAGGA | ≥ 0.196 |
| GCCAACGC | inactive: -0.166 |
| GATCAATC | inactive: -0.0083 |
| CTAACCAG | inactive: 0.121 |
| CAAATATG | inactive: 0.0918 |
| AAGACGAA | inactive: 0.0568 |
| TAATGCAA | inactive: 0.0818 |
| ATCTCTCC | inactive: -0.0495 |
| CTACTAGA | inactive: 0.0626 |
| CCCTTTAG | inactive: -0.095 |
| CCGACAGC | inactive: -0.0901 |

| Sequence | PBM E-score |
| --- | --- |
| AAATAAAC | inactive: 0.193 |
| ATACGAAG | inactive: 0.0288 |
| CGGGTTGC | inactive: -0.109 |
| GACCGCCC | inactive: -0.287 |
| CTACCGTA | inactive: 0.0707 |
| ACCGTTTC | inactive: -0.068 |
| AAGTCTGT | inactive: 0.139 |
| CGTAAACG | inactive: -0.0383 |
| CTTGGGAC | inactive: -0.147 |
| ATAGCACA | inactive: 0.0848 |
| ACGGTTAC | inactive: 0.0585 |
| AGGTGTAT | inactive: 0.243 |
| ATGATATA | inactive: 0.174 |
| CTACTCCC | inactive: -0.056 |
| ATTTAGTG | inactive: 0.094 |
| CCTTAACA | inactive: 0.147 |
| AGGGGATA | inactive: 0.00853 |
| CCGCAATC | inactive: -0.119 |
| AGAGTCTC | inactive: -0.13 |
| CGATGAAG | ≥ 0.0686 |
| ACCGATCT | inactive: -0.0517 |
| ATCTTCCG | inactive: -0.0309 |
| AAGCATCG | inactive: -0.00688 |
| AGACGAAT | inactive: 0.0391 |
| ACTGTTGG | inactive: -0.00277 |

| Sequence | PBM E-score |
| --- | --- |
| GCCCCCGA | inactive: -0.297 |
| ATTTCTTA | inactive: 0.1 |
| TAATAGCA | inactive: 0.0739 |
| ATACAAAT | inactive: 0.272 |
| CTGCAGCC | inactive: -0.196 |
| CGACCACG | inactive: -0.0332 |
| GAGAATGA | inactive: 0.0682 |
| ACGGCTTC | inactive: -0.124 |
| GGCCTCCA | inactive: -0.206 |
| GTTGATAA | inactive: 0.167 |
| AAGGTGCC | inactive: -0.0732 |
| ATCGCCGC | inactive: -0.14 |
| GTCCGCGA | inactive: -0.104 |
| AGGTTTCG | inactive: -0.0441 |
| ATCAGGAC | inactive: 0.0309 |
| CTGACAAC | inactive: 0.281 |
| AGTATGGC | inactive: -0.0798 |
| GGAGCACC | inactive: -0.132 |
| ACTTGCCG | inactive: 0.0385 |
| ATCGAGTG | inactive: 0.0358 |
| AAGCTGAA | inactive: -0.026 |
| GTGTGACA | inactive: 0.29 |
| CGGATCGC | inactive: -0.135 |
| GGACGGCA | inactive: -0.103 |
| ATAGTAGC | inactive: 0.105 |

| Sequence | PBM E-score |
| --- | --- |
| ATTTCTCC | inactive: -0.0592 |
| AACTTTCT | inactive: 0.0685 |
| CGTGGCCA | inactive: -0.145 |
| GGAAGGCA | inactive: -0.216 |
| CCATTTTA | inactive: 0.0318 |
| AATGCGCC | inactive: -0.0685 |
| ACATCAGA | inactive: 0.19 |
| AGTGATTC | inactive: 0.022 |
| ACGGTAAT | inactive: 0.0153 |
| ATCCATAA | inactive: 0.00943 |
| GATGCATC | inactive: 0.142 |
| AGCATTCA | inactive: -0.00786 |
| AAAGGCCC | inactive: -0.159 |
| CAAGGTGC | inactive: -0.0393 |
| ACTAATTC | inactive: 0.23 |
| GACTAATC | inactive: 0.0756 |
| GTCCCAAC | inactive: 0.0237 |
| GTAGAGTA | inactive: 0.152 |
| GGTCACAA | inactive: -0.033 |
| ATCTTGGG | inactive: 0.0158 |
| CCCCTGGC | inactive: -0.288 |
| CGAGATGA | inactive: -0.0624 |
| CAGTGAAG | inactive: -0.0944 |
| AACCTGGC | inactive: -0.115 |
| GAGAGGGC | inactive: -0.268 |

| Sequence | PBM E-score |
| --- | --- |
| ACCTCTGA | inactive: -0.12 |
| AGTCTAAC | inactive: -0.0138 |
| AAACGCCG | inactive: -0.103 |
| AACCATGT | active: 0.347 |
| GCAACACA | inactive: 0.144 |
| ACCGAATG | inactive: 0.0492 |
| ATTCACCG | inactive: -0.0488 |
| GTATCGAC | inactive: 0.0647 |
| CATTTAAC | inactive: 0.148 |
| CCCAAGGA | inactive: -0.154 |
| CTCGCCAC | inactive: -0.114 |
| ATCACCAT | ≥ 0.111 |
| AACAATAA | inactive: 0.195 |
| CCGTCAAG | inactive: -0.157 |
| CAACGGGG | inactive: -0.0741 |
| AATCTGTA | inactive: 0.21 |
| ATCACATC | inactive: 0.172 |
| AGCATAAG | inactive: -0.0406 |
| ACTTGATC | inactive: 0.0729 |
| GGACGTTA | inactive: -0.0181 |
| GTCCTACA | inactive: 0.146 |
| GCGTTCCC | inactive: -0.201 |
| AGATCTGC | inactive: 0.0742 |
| AGACTGCT | inactive: -0.0272 |
| AGTAATCG | inactive: 0.0504 |

| Sequence | PBM E-score |
| --- | --- |
| GTTGGTCA | inactive: 0.0524 |
| AACTAGCA | inactive: 0.0338 |
| ACATCCTG | inactive: 0.299 |
| AAACATCT | inactive: 0.215 |
| GGTATCCA | inactive: -0.0143 |
| CGACCGGC | inactive: -0.141 |
| CGGCAAAG | inactive: -0.0935 |
| GGGTACAA | inactive: 0.242 |
| ACGTTTCA | inactive: 0.0345 |
| AGCATTGC | inactive: -0.0674 |
| GCGAACTA | inactive: -0.0109 |
| ACCATCAC | ≥ 0.0931 |
| AACTCTGT | inactive: 0.0656 |
| CGCCTACC | inactive: -0.139 |
| GACTACCC | inactive: -0.0672 |
| AATAGGCG | inactive: -0.0729 |
| AAAATCCA | inactive: 0.107 |
| AACGGAGG | inactive: -0.168 |
| AGACGTGC | inactive: -0.0698 |
| AGCCTGTA | inactive: 0.14 |
| GCGTAAGA | inactive: -0.0412 |
| TTAACGAA | inactive: 0.0384 |
| AGGCACGC | inactive: -0.243 |
| GAACTTAA | inactive: 0.00753 |
| ATCATTGA | inactive: 0.153 |

| Sequence | PBM E-score |
| --- | --- |
| CTTCCGCC | inactive: -0.236 |
| GTATGACA | active: 0.312 |
| ATGAGAGC | inactive: -0.0905 |
| GTAACATA | active: 0.345 |
| CCACTATC | inactive: -0.0271 |
| GTTTGCTA | inactive: 0.12 |
| GTACCCAC | inactive: -0.0396 |
| CGAACTAG | inactive: 0.0457 |
| CGTCTATC | inactive: 0.0194 |
| CAGTTTCA | inactive: -0.0417 |
| CTTGTAGA | inactive: 0.248 |
| GGTTCCGA | inactive: -0.0584 |
| GAACCCTC | inactive: -0.114 |
| CATAGTAC | inactive: 0.145 |
| ATATCCCG | inactive: 0.0584 |
| ATCCGAAG | inactive: -0.0583 |
| AGGCGCAA | inactive: -0.0964 |
| TTCCGCAA | inactive: -0.00932 |
| ATCCCACC | inactive: -0.122 |
| CGCATTTA | inactive: 0.0602 |
| CCCAGAGG | inactive: -0.342 |
| AGACCGCC | inactive: -0.226 |
| ATCACCAA | inactive: 0.0852 |
